# Data published in the BET-seq Pho4 binding data (Le et al. 2018).
# Some of the results follow. Values were computed here from the reads of four pooled replicates and scatter widely.
# Molecular target: T1, Pho4 (S. cerevisiae) (UniProt P07270)
# T1 sequence: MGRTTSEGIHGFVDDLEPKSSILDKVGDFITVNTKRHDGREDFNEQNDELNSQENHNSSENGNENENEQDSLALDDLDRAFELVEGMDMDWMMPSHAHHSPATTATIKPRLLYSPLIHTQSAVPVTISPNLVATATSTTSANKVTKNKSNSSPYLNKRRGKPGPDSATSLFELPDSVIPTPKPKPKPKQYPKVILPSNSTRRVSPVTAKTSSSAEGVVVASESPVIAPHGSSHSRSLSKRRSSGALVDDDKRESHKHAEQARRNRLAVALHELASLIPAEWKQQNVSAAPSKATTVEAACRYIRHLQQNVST
# Assay: relative binding free energy (BET-seq); higher = weaker binding
# Conditions: reference: library average
row,Sequence,relative binding free energy
1,AGTATCACGTGCGGTA,0.08 kcal/mol
2,ATAGGCACGTGTCGTT,-0.1 kcal/mol
3,CTTTACACGTGTCTGT,0.11 kcal/mol
4,TGCGTCACGTGGAAGA,0.08 kcal/mol
5,GGGTGCACGTGTTCCG,0.13 kcal/mol
6,GTTAACACGTGGTTGT,0.1 kcal/mol
7,AGTTGCACGTGTGAGG,0.12 kcal/mol
8,TAGGTCACGTGTTGTA,0.11 kcal/mol
9,AGAATCACGTGGAGGG,0.18 kcal/mol
10,TGGGTCACGTGTTGGT,0.22 kcal/mol
11,GGGGTCACGTGTGGAT,0.24 kcal/mol
12,CTATTCACGTGGTGGA,0.18 kcal/mol
13,GTGGGCACGTGATTTC,0 kcal/mol
14,CTTGGCACGTGTTAAA,0.03 kcal/mol
15,CGATTCACGTGTATTT,0.16 kcal/mol
16,GTGGGCACGTGCTGTA,-0.2 kcal/mol
17,GTTGACACGTGGGATC,-0.01 kcal/mol
18,AGATTCACGTGATGGA,0.33 kcal/mol
19,TTAGACACGTGTCAGG,0.06 kcal/mol
20,TATCGCACGTGTAATT,0.13 kcal/mol
21,TCGTTCACGTGGAGTG,0.17 kcal/mol

row,Sequence,relative binding free energy
1,GCGTGCACGTGTCAGG,-0.06 kcal/mol
2,GGTGCCACGTGCTGTT,-0.09 kcal/mol
3,TCGATCACGTGGGTTG,0.07 kcal/mol
4,TGTAGCACGTGTTTCA,-0.05 kcal/mol
5,CGCAGCACGTGAGGGT,0.08 kcal/mol
6,AGGTGCACGTGGTTGG,-0.06 kcal/mol
7,AATTTCACGTGGGACG,0.24 kcal/mol
8,AAAGGCACGTGCGTAG,-0.08 kcal/mol
9,CTTATCACGTGTTGGT,0.12 kcal/mol
10,GTTTACACGTGCGGGG,0.17 kcal/mol
11,GAGGACACGTGGTAGT,0.12 kcal/mol
12,AGGCGCACGTGGTATA,-0.18 kcal/mol
13,GCATTCACGTGGATGT,0.22 kcal/mol
14,TTGCTCACGTGCGGTT,0.21 kcal/mol
15,TTGTTCACGTGACCTG,0.44 kcal/mol
16,GGTGTCACGTGAGAAT,0.21 kcal/mol
17,TGGAGCACGTGTTTGG,0.03 kcal/mol
18,GAAGGCACGTGAATGT,0.19 kcal/mol
19,ACTGGCACGTGGATTG,-0.07 kcal/mol
20,TTAAACACGTGTTGGG,-0.04 kcal/mol
21,CGTAACACGTGTTGTG,-0.13 kcal/mol

row,Sequence,relative binding free energy
1,TCGGTCACGTGGGAGC,0.11 kcal/mol
2,ATGATCACGTGTTATA,0.02 kcal/mol
3,TCATTCACGTGTAAGG,0.24 kcal/mol
4,AAGCGCACGTGGGTGC,-0.17 kcal/mol
5,TTGAACACGTGGCGTT,-0.06 kcal/mol
6,TTACACACGTGGGGTT,-0.16 kcal/mol
7,TTTACCACGTGGTGGA,-0.12 kcal/mol
8,TAATGCACGTGAGAGT,0.16 kcal/mol
9,GGGGACACGTGAGTCT,0.25 kcal/mol
10,TGTCACACGTGTTTTA,0.06 kcal/mol
11,GGGAGCACGTGGGCCG,-0.16 kcal/mol
12,TATGTCACGTGCTTTT,0.01 kcal/mol
13,GCGGGCACGTGGGTCA,-0.23 kcal/mol
14,TTTATCACGTGTTTCA,0.09 kcal/mol
15,ATTGTCACGTGTCGTA,0.13 kcal/mol
16,GGATGCACGTGGTGTC,-0.01 kcal/mol
17,TTCGTCACGTGAGTGA,0.17 kcal/mol
18,GGGAGCACGTGGTCTT,-0.11 kcal/mol
19,GGTGACACGTGGAATT,0.22 kcal/mol
20,GTGGTCACGTGGCTTG,0.09 kcal/mol
21,AGGGGCACGTGTCTTT,-0.2 kcal/mol
